Assay results reported in PubChem BioAssay AID686978 (National Center for Advancing Translational Sciences (NCATS), 2013).
In all, about 420,000 compounds went through this assay and about 64,000 (15%) were called active. Inconclusive results, whose numbers are uncertain, are shown with a selection of clear calls. Calls come from the whole dose curve; as a rule, active = well fitted inhibition curve with a large enough effect; inconclusive = small, poorly fitted or top-dose-only effect; inactive = flat fitted curve, though single readings scatter. No potency is given beside an inconclusive call; the fits are too rough.
Potency is the fitted concentration of half-maximal effect; tags give direction and shape of the fitted curve.

Assay: qHTS for Inhibitors of human tyrosyl-DNA phosphodiesterase 1 (TDP1): qHTS in cells in absence of CPT; note: nearly all actives have a fitted effect of over 55% in size
Details: DT40 Tdp1-/- hTDP1 cells, no CPT, ATP luminescence, 48 h; series mostly up to 46.2 µM
Method in brief: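 Compound effects on proliferation are scored in DT40 Tdp1-/-;hTDP1 cells in the absence of CPT. ATP levels (CellTiter-Glo luminescence) are recorded after a ≥48 hr, 37 °C incubation.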
With `CCN1C[C@@H]2[C@@H]3C(=O)N(Cc4ccccc4)C(=O)[C@@H]3[C@](C)(C(=O)OC)N2C1=NC` the Potency was “inactive”.
With `COc1ccccc1NC(=O)c1ccc(NC(=O)COC(=O)C2CC2C)cc1` (stereo not given) the Potency was inconclusive [inhibitor, single point].
For `CCSCCOC(=O)C1=C(C)NC(=O)NC1c1ccc2c(c1)OCO2` (stereo not given), the Potency was inconclusive [inhibitor, single point].
In the case of `COc1ccc(/C=N/NC(=O)c2ccc(N(C)S(=O)(=O)c3ccccc3)cc2)cc1`, the Potency is reported as active: 23.1 µM.
For `CCOC(=O)c1ccccc1NC(=O)COC(=O)CN1C(=O)NC2(CCCC2)C1=O`, the Potency was inconclusive [inhibitor, single point].
For `O=C(c1ccccc1)C1N=NCC1c1ccc(Cl)cc1` (stereo not given), the Potency was inconclusive [inhibitor, single point].
With `Cn1cnnc1SCC(=O)Nc1nc(-c2ccccc2)cs1` the Potency was inconclusive [inhibitor, single point].
In the case of `CC1(C(=O)N2CC3(CC(c4cccc(NC(=O)COc5ccc(Cl)cc5)c4)=NO3)C[C@@H]2C(N)=O)CC1` (stereo not given in full), the Potency is reported as active: 14.6 µM.
For `Cc1ccc(C)c(N2N=C(C(=O)NCCN3C(=O)S/C(=C\c4cccnc4)C3=O)CCC2=O)c1`, the Potency was inconclusive [inhibitor, single point].
For `COc1ccc(NC(=O)CN2CCCC2c2cccs2)cc1S(=O)(=O)N1CCCCC1` (stereo not given), the Potency was inconclusive [inhibitor, single point].
With `CC12CCC(=O)N1C(C(=O)NCc1ccccc1F)CS2` (stereo not given) the Potency was “inactive”.
For `CC(C)CC(=O)NC(NC(=S)Nc1cccc2cccnc12)C(Cl)(Cl)Cl` (stereo not given), the Potency was active: 8.2 µM.
For `CC(=O)Nc1ccc(NC(C)=O)c(NC2OCC(O)C(O)C2O)c1` (stereo not given), the Potency was “inactive”.
For `Cc1cc(C)nc(N2CCC(C(=O)NCC3CCCCC3)CC2)n1`, the Potency was “inactive”.
With `Cc1cc(C)n(-c2ccc(C(=O)Nc3sccc3C(N)=O)cc2)n1` the Potency was inconclusive [inhibitor, single point].
In the case of `CC1CCN(CCCNC(=O)c2ccc3c(Cl)c4c(nc3c2)CCCC4)CC1`, the Potency is reported as active: 3.66 µM.
With `CCCN1CCc2[nH]c(=S)[nH]c(=O)c2C1` the Potency was “inactive”.
In the case of `CCOc1ccccc1Nc1nc(-c2cccnc2)cs1`, the Potency is reported as inconclusive [inhibitor, single point].
With `CCN1C(=O)C(=O)N(CC(=O)Nc2ccccc2OC(F)F)C1=O` the Potency was “inactive”.
With `COc1ccc(-n2c(C)cc(C(=O)COc3ccc(-n4cnnn4)cc3)c2C)cc1` the Potency was inconclusive [inhibitor, single point].
For `COC(=O)c1ccc(C23CC4(C2)[C@H](CN(Cc2cccnc2)[C@@H]4c2ccccc2)C3c2ccccc2)cc1` (stereo not given in full), the Potency was active: 23.1 µM.
With `O=C(c1ccncc1)N(c1ccc(N2CCOCC2)cc1)C(c1ccccc1)c1nc2ccccc2[nH]1` (stereo not given) the Potency was inconclusive [inhibitor, single point].
For `O=C(NCc1ccncc1)C(=O)NCC1OCCCN1S(=O)(=O)c1ccc(F)cc1` (stereo not given), the Potency was “inactive”.
In the case of `Cc1ccc(S(=O)(=O)Oc2cccc(N3C(=O)C4CC=CCC4C3=O)c2)cc1` (stereo not given), the Potency is reported as inconclusive [inhibitor, single point].
For `COc1ccc(-c2cc(C(=O)c3c(N)n(C)c(=O)n(C)c3=O)c3ccccc3n2)cc1OC`, the Potency was “inactive”.
With `O=C(N/N=C/c1ccccn1)c1cccc(NC(=O)c2ccc(Cl)cc2)c1` the Potency was inconclusive [inhibitor, single point].
With `CC(=O)Nc1cc(C(=O)N2CCCC2)ccc1Sc1ccc(Cl)cc1` the Potency was inconclusive [inhibitor, single point].
For `Cc1ccc(C(=O)N2N=C(c3ccccc3)CC2(O)C(F)(F)F)o1` (stereo not given), the Potency was inconclusive [inhibitor, single point].
In the case of `CCCOc1ccc(NC(=O)CC2C(=O)N(c3ccc(C)cc3)C(=O)N2Cc2cccc(OC)c2)cc1` (stereo not given), the Potency is reported as “inactive”.
In the case of `CN1C(=O)C2C=CC1C1C(=O)N(c3ccccc3)C(=O)C21` (stereo not given), the Potency is reported as “inactive”.
In the case of `c1cncc(-c2nc3c(ccc4ccccc43)[nH]2)c1`, the Potency is reported as inconclusive [inhibitor, single point].
In the case of `O=C(C1CC1)N1CCc2cc(Br)cc(S(=O)(=O)N3CCCCCC3)c21`, the Potency is reported as active: 20.6 µM.
With `OCC#Cc1ncc(C(F)(F)F)cc1Cl` the Potency was active: 7.31 µM.
In the case of `O=c1c2cc3c(nc2ncn1Cc1ccc(Cl)cc1)CCCC3`, the Potency is reported as inconclusive [inhibitor, partial curve].
With `CC(C)NC(=O)CSc1nc2ccccc2n1-c1ccccc1` the Potency was inconclusive [inhibitor, single point].
With `O=C(NCCCN1CCOCC1)c1cc(-c2ccc(Cl)cc2)on1` the Potency was inconclusive [inhibitor, single point].
In the case of `Cc1c(NC(=O)/C(C#N)=C/c2ccccc2)c(=O)n(-c2ccccc2)n1C`, the Potency is reported as “inactive”.
For `COC(=O)[C@]12CCCCC=C1N(Cc1ccc(Cl)cc1Cl)C(=O)[C@H](CC(=O)N1CCN(C(=O)C3CC3)CC1)C2`, the Potency was inconclusive [inhibitor, single point].
With `C=CCc1cccc2cc(C(=O)OCC)c(=O)oc12` the Potency was “inactive”.
With `COC(=O)c1ccc2c(c1)N(Cc1nc(-c3ccc(Cl)cc3)oc1C)C(=O)C1CCCN21` (stereo not given) the Potency was inconclusive [inhibitor, partial curve].
With `COc1ccc(Cl)cc1NC(=O)CSc1nnc(COc2ccccc2)n1C` the Potency was inconclusive [inhibitor, single point].
In the case of `CC(C)C(=O)Nc1cc(S(=O)(=O)Nc2cccc(Cl)c2)ccc1Cl`, the Potency is reported as inconclusive [inhibitor, single point].
In the case of `CC1CC(C)CN(c2ncnc3c2cnn3-c2ccc(Cl)cc2)C1` (stereo not given), the Potency is reported as inconclusive [inhibitor, single point].
With `CCOC(=O)c1ccc(S(=O)(=O)N2CCN(CCc3ccncc3)CC2)cc1` the Potency was “inactive”.
With `CCOC(=O)C1(CCOc2ccccc2)CCN(Cc2ccc(OCCO)cc2)CC1` the Potency was inconclusive [inhibitor, single point].
